This is one part of the list.
Columns and labels:
Test in all cases: glycan array binding signal (z-score within array); higher = stronger binding
Settings in all cases: glycan notation: IUPAC condensed, linker removed
[1] = target: Fuc(a1-3)[Gal(b1-4)]GlcNAc(b1-2)Man(a1-3)[Fuc(a1-3)[Gal(b1-4)]GlcNAc(b1-2)Man(a1-6)]Man(b1-4)GlcNAc(b1-4)GlcNAc
Outline: (§1)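 Arrays were curated from the Consortium for Functional Glycomics database, 3228 in total, and kept only where the protein sequence was available. Binding is expressed as a within-array Z-score. This score was averaged across arrays of the same protein sequence at different concentrations or buffers and across linkers, and negative values can be read as non-binding.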

[2] = target: Fuc(a1-3)[Gal(b1-4)]GlcNAc(b1-2)Man(a1-3)[Fuc(a1-3)[Gal(b1-4)]GlcNAc(b1-2)Man(a1-6)]Man(b1-4)GlcNAc(b1-4)[Fuc(a1-6)]GlcNAc
Outline: as §1

[3] = target: Fuc(a1-3)[Gal(b1-4)]GlcNAc(b1-3)Gal(b1-3)[Fuc(a1-4)]GlcNAc
Outline: as §1

[4] = target: Fuc(a1-3)[Gal(b1-4)]GlcNAc(b1-3)GalNAc
Outline: as §1

[5] = target: Fuc(a1-3)[Gal(b1-4)]GlcNAc(b1-4)Gal(b1-4)[Fuc(a1-3)]GlcNAc
Outline: as §1

[6] = target: Fuc(a1-3)[Gal(b1-4)]GlcNAc(b1-4)Gal(b1-4)[Fuc(a1-3)]GlcNAc(b1-4)Gal(b1-4)[Fuc(a1-3)]GlcNAc
Outline: as §1

[7] = target: Fuc(a1-3)[Gal(b1-4)]GlcNAc(b1-6)GalNAc
Outline: as §1

[8] = target: Fuc(a1-3)[Gal(b1-4)]GlcNAc(b1-6)[Gal(b1-3)GlcNAc(b1-3)]Gal(b1-4)Glc
Outline: as §1

[9] = target: Fuc(a1-3)[Gal(b1-4)]GlcNAc(b1-6)[Neu5Ac(a2-3)Gal(b1-3)]GalNAc
Outline: as §1

[10] = target: Fuc(a1-3)[Gal(b1-4)]GlcNAc6S
Outline: as §1

[11] = target: Fuc(a1-3)[Gal3S(b1-4)]GlcNAc
Outline: as §1

[12] = target: Fuc(a1-3)[Gal3S(b1-4)]GlcNAc6S
Outline: as §1

[13] = target: Fuc(a1-3)[GalNAc(b1-4)]GlcNAc
Outline: as §1

Fuc(a1-4)GlcNAc = target: Fuc(a1-4)GlcNAc
Outline: as §1

Fuc(b1-3)GlcNAc = target: Fuc(b1-3)GlcNAc
Outline: as §1

Gal(a1-2)Gal = target: Gal(a1-2)Gal
Outline: as §1

Gal(a1-3)Gal = target: Gal(a1-3)Gal
Outline: as §1

Gal(a1-3)Gal(b1-3)GlcNAc = target: Gal(a1-3)Gal(b1-3)GlcNAc
Outline: as §1

[14] = target: Gal(a1-3)Gal(b1-3)GlcNAc(b1-2)Man(a1-3)[Gal(a1-3)Gal(b1-3)GlcNAc(b1-2)Man(a1-6)]Man(b1-4)GlcNAc(b1-4)GlcNAc
Outline: as §1

[15] = target: Gal(a1-3)Gal(b1-3)GlcNAc(b1-3)GalNAc
Outline: as §1

[16] = target: Gal(a1-3)Gal(b1-3)[Fuc(a1-4)]GlcNAc(b1-2)Man(a1-3)[Gal(a1-3)Gal(b1-3)[Fuc(a1-4)]GlcNAc(b1-2)Man(a1-6)]Man(b1-4)GlcNAc(b1-4)GlcNAc
Outline: as §1

Gal(a1-3)Gal(b1-4)Glc = target: Gal(a1-3)Gal(b1-4)Glc
Outline: as §1

Gal(a1-3)Gal(b1-4)GlcNAc = target: Gal(a1-3)Gal(b1-4)GlcNAc
Outline: as §1

[17] = target: Gal(a1-3)Gal(b1-4)GlcNAc(b1-3)GalNAc
Outline: as §1

[18] = target: Gal(a1-3)Gal(b1-4)[Fuc(a1-3)]GlcNAc
Outline: as §1

[19] = target: Gal(a1-3)Gal(b1-4)[Fuc(a1-3)]GlcNAc(b1-2)Man(a1-3)[Gal(a1-3)Gal(b1-4)[Fuc(a1-3)]GlcNAc(b1-2)Man(a1-6)]Man(b1-4)GlcNAc(b1-4)GlcNAc
Outline: as §1

Gal(a1-3)GalNAc = target: Gal(a1-3)GalNAc
Outline: as §1

[20] = target: Gal(a1-3)[Gal(a1-4)]Gal(b1-4)GlcNAc
Outline: as §1

[21] = target: Gal(a1-4)Gal(b1-3)GlcNAc(b1-2)Man(a1-3)[Gal(a1-4)Gal(b1-3)GlcNAc(b1-2)Man(a1-6)]Man(b1-4)GlcNAc(b1-4)GlcNAc
Outline: as §1

Gal(a1-4)Gal(b1-4)Glc = target: Gal(a1-4)Gal(b1-4)Glc
Outline: as §1

Gal(a1-4)Gal(b1-4)GlcNAc = target: Gal(a1-4)Gal(b1-4)GlcNAc
Outline: as §1

[22] = target: Gal(a1-4)Gal(b1-4)GlcNAc(b1-2)Man(a1-3)[Gal(a1-4)Gal(b1-4)GlcNAc(b1-2)Man(a1-6)]Man(b1-4)GlcNAc(b1-4)GlcNAc
Outline: as §1

[23] = target: Gal(a1-4)Gal(b1-4)GlcNAc(b1-3)Gal(b1-4)Glc
Outline: as §1

Gal(a1-4)GlcNAc = target: Gal(a1-4)GlcNAc
Outline: as §1

Gal(a1-6)Glc = target: Gal(a1-6)Glc
Outline: as §1

Gal(b1-2)Gal = target: Gal(b1-2)Gal
Outline: as §1

Gal(b1-3)Gal = target: Gal(b1-3)Gal
Outline: as §1

B1: F17aG (Escherichia coli), Q99003 (protein)
chain: MTNFYKVFLAVFILVCCNISQAAVSFIGSTENDVGPSLGSYSRTHAMDNLPFVYDTRNKIGYQNANVWHISKGFCVGLDGKVDLPVVGSLDGQSIYGLTEEVGLLIWMGDTKYSRGTAMSGNSWENVFSGWCVGANTASTQGLSVRVTPVILKRNSSARYSVQKTSIGSIRMRPYNGSSAGSVQTTVNFSLNPFTLNDTVTSCRLLTPSAVNVSLAAISAGQLPSSGDEVVAGTTSLKLQCDAGVTVWATLTDATTPSNRSDILTLTGASTATGVGLRIYKNTDSTPLKFGPDSPVKGNENQWQLSTGTETSPSVRLYVKYVNTGEGINPGTVNGISTFTFSYQ
glycan array binding signal (z-score) [1]: -0.148
glycan array binding signal (z-score) [2]: -0.16
glycan array binding signal (z-score) [3]: -0.065
glycan array binding signal (z-score) [4]: -0.144
glycan array binding signal (z-score) [5]: -0.138
glycan array binding signal (z-score) [6]: -0.26
glycan array binding signal (z-score) [7]: -0.119
glycan array binding signal (z-score) [8]: -0.15
glycan array binding signal (z-score) [9]: -0.146
glycan array binding signal (z-score) [10]: -0.145
glycan array binding signal (z-score) [11]: -0.219
glycan array binding signal (z-score) [12]: -0.151
glycan array binding signal (z-score) [13]: -0.236
glycan array binding signal (z-score) (Fuc(a1-4)GlcNAc): -0.219
glycan array binding signal (z-score) (Fuc(b1-3)GlcNAc): -0.253
glycan array binding signal (z-score) (Gal(a1-2)Gal): -0.221
glycan array binding signal (z-score) (Gal(a1-3)Gal): -0.259
glycan array binding signal (z-score) (Gal(a1-3)Gal(b1-3)GlcNAc): 0.04
glycan array binding signal (z-score) [14]: -0.178
glycan array binding signal (z-score) [15]: -0.143
glycan array binding signal (z-score) [16]: -0.161
glycan array binding signal (z-score) (Gal(a1-3)Gal(b1-4)Glc): -0.197
glycan array binding signal (z-score) (Gal(a1-3)Gal(b1-4)GlcNAc): -0.183
glycan array binding signal (z-score) [17]: -0.168
glycan array binding signal (z-score) [18]: -0.252
glycan array binding signal (z-score) [19]: -0.157
glycan array binding signal (z-score) (Gal(a1-3)GalNAc): -0.188
glycan array binding signal (z-score) [20]: -0.234
glycan array binding signal (z-score) [21]: -0.142
glycan array binding signal (z-score) (Gal(a1-4)Gal(b1-4)Glc): -0.249
glycan array binding signal (z-score) (Gal(a1-4)Gal(b1-4)GlcNAc): -0.252
glycan array binding signal (z-score) [22]: -0.16
glycan array binding signal (z-score) [23]: -0.154
glycan array binding signal (z-score) (Gal(a1-4)GlcNAc): -0.258
glycan array binding signal (z-score) (Gal(a1-6)Glc): 0.181
glycan array binding signal (z-score) (Gal(b1-2)Gal): -0.25
glycan array binding signal (z-score) (Gal(b1-3)Gal): -0.25

Source: the supplement of paper PMC8728848
